Reference: the supplement of paper PMC8728848
Some of the results follow.

How the values were obtained:
Experiment in all cases: glycan array binding signal (z-score within array); higher = stronger binding
Details in all cases: glycan notation: IUPAC condensed, linker removed
[1] = biological target: Gal(b1-4)GlcNAc(b1-3)[GlcNAc(b1-6)]Gal(b1-4)GlcNAc
In short: (§1)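 The Consortium for Functional Glycomics database supplied 3228 glycan arrays, of which those lacking an available protein sequence were dropped. The binding signal, a within-array Z-score, was averaged across arrays of the same protein sequence and across linkers. Negative scores can be read as non-binding.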

[2] = biological target: Gal(b1-4)GlcNAc(b1-6)Gal(b1-4)GlcNAc
In short: as §1

[3] = biological target: Gal(b1-4)GlcNAc(b1-6)Gal(b1-4)GlcNAc(b1-6)GalNAc
In short: as §1

[4] = biological target: Gal(b1-4)GlcNAc(b1-6)GalNAc
In short: as §1

[5] = biological target: Gal(b1-4)GlcNAc(b1-6)[Gal(b1-3)]GalNAc
In short: as §1

Gal3S(b1-3)GalNAc = biological target: Gal3S(b1-3)GalNAc
In short: as §1

Gal3S(b1-3)GlcNAc = biological target: Gal3S(b1-3)GlcNAc
In short: as §1

[6] = biological target: Gal3S(b1-3)[Fuc(a1-4)]GlcNAc
In short: as §1

Gal3S(b1-4)Glc = biological target: Gal3S(b1-4)Glc
In short: as §1

Gal3S(b1-4)Glc6S = biological target: Gal3S(b1-4)Glc6S
In short: as §1

Gal3S(b1-4)GlcNAc = biological target: Gal3S(b1-4)GlcNAc
In short: as §1

Gal3S(b1-4)GlcNAc6S = biological target: Gal3S(b1-4)GlcNAc6S
In short: as §1

[7] = biological target: Gal3S(b1-4)[Fuc(a1-3)]Glc
In short: as §1

Gal3S4S(b1-4)GlcNAc = biological target: Gal3S4S(b1-4)GlcNAc
In short: as §1

Gal3S6S(b1-4)GlcNAc = biological target: Gal3S6S(b1-4)GlcNAc
In short: as §1

Gal3S6S(b1-4)GlcNAc6S = biological target: Gal3S6S(b1-4)GlcNAc6S
In short: as §1

Gal4S(b1-4)GlcNAc = biological target: Gal4S(b1-4)GlcNAc
In short: as §1

Gal4S6S(b1-4)GlcNAc = biological target: Gal4S6S(b1-4)GlcNAc
In short: as §1

Gal6S(b1-4)Glc = biological target: Gal6S(b1-4)Glc
In short: as §1

Gal6S(b1-4)Glc6S = biological target: Gal6S(b1-4)Glc6S
In short: as §1

Gal6S(b1-4)GlcNAc = biological target: Gal6S(b1-4)GlcNAc
In short: as §1

Gal6S(b1-4)GlcNAc6S = biological target: Gal6S(b1-4)GlcNAc6S
In short: as §1

GalNAc(a1-3)Gal = biological target: GalNAc(a1-3)Gal
In short: as §1

GalNAc(a1-3)GalNAc = biological target: GalNAc(a1-3)GalNAc
In short: as §1

GalNAc(b1-3)Gal = biological target: GalNAc(b1-3)Gal
In short: as §1

[8] = biological target: GalNAc(b1-3)Gal(a1-4)Gal(b1-4)GlcNAc
In short: as §1

[9] = biological target: GalNAc(b1-3)Gal(a1-4)Gal(b1-4)GlcNAc(b1-3)Gal(b1-4)Glc
In short: as §1

GalNAc(b1-3)GalNAc = biological target: GalNAc(b1-3)GalNAc
In short: as §1

GalNAc(b1-4)GlcNAc = biological target: GalNAc(b1-4)GlcNAc
In short: as §1

[10] = biological target: GalNAc(b1-4)GlcNAc(b1-2)Man(a1-3)[GalNAc(b1-4)GlcNAc(b1-2)Man(a1-6)]Man(b1-4)GlcNAc(b1-4)GlcNAc
In short: as §1

Glc(a1-4)Glc = biological target: Glc(a1-4)Glc
In short: as §1

Glc(a1-6)Glc(a1-6)Glc = biological target: Glc(a1-6)Glc(a1-6)Glc
In short: as §1

Glc(b1-4)Glc = biological target: Glc(b1-4)Glc
In short: as §1

Glc(b1-6)Glc = biological target: Glc(b1-6)Glc
In short: as §1

GlcA(b1-3)Gal = biological target: GlcA(b1-3)Gal
In short: as §1

GlcA(b1-3)GlcNAc = biological target: GlcA(b1-3)GlcNAc
In short: as §1

GlcA(b1-6)Gal = biological target: GlcA(b1-6)Gal
In short: as §1

[11] = biological target: GlcNAc(a1-3)Gal(b1-4)GlcNAc
In short: as §1

[12] = biological target: GlcNAc(a1-4)Gal(b1-3)GlcNAc
In short: as §1

[13] = biological target: GlcNAc(a1-4)Gal(b1-4)GalNAc
In short: as §1

[14] = biological target: GlcNAc(a1-4)Gal(b1-4)GlcNAc
In short: as §1

[15] = biological target: GlcNAc(a1-4)Gal(b1-4)GlcNAc(b1-3)Gal(b1-4)Glc
In short: as §1

[16] = biological target: GlcNAc(a1-4)Gal(b1-4)GlcNAc(b1-3)Gal(b1-4)GlcNAc
In short: as §1

[17] = biological target: GlcNAc(a1-4)Gal(b1-4)GlcNAc(b1-3)Gal(b1-4)GlcNAc(b1-3)Gal(b1-4)GlcNAc
In short: as §1

[18] = biological target: GlcNAc(a1-4)Gal(b1-4)GlcNAc(b1-3)Gal(b1-4)[Fuc(a1-3)]GlcNAc(b1-3)Gal(b1-4)[Fuc(a1-3)]GlcNAc
In short: as §1

B1: GALT1 615 (Arabidopsis thaliana), Q8L7F9 (protein)
chain: DPMRGSHHHHHHGMASMTGGQQMGRDLYDDDDKSRLQKPYITAAASVVVTPNTTLPMEWLRITLPDFMKEARNTQEAISGDDIAVVSGLFVEQNVSKEEREPLLTWNRLESLVDNAQSLVNGVDAIKEAGIVWESLVSAVEAKKLVDVNENQTRKGKEELCPQFLSKMNATEADGSSLKLQIPCGLTQGSSITVIGIPDGLVGSFRIDLTGQPLPGEPDPPIIVHYNVRLLGDKSTEDPVIVQNSWTASQDWGAEERCPKFDPDMNKKVDDLDECNKMVGGEINRTSSTSLQSNTSRGVPVAREASKHEKYFPFKQGFLSVATLRVGTEGMQMTVDGKHITSFAFRDTLEPWLVSEIRITGDFRLISILA
[1]
  glycan array binding signal (z-score): -0.254
[2]
  glycan array binding signal (z-score): -0.296
[3]
  glycan array binding signal (z-score): 0.586
[4]
  glycan array binding signal (z-score): -0.439
[5]
  glycan array binding signal (z-score): -0.304
Gal3S(b1-3)GalNAc
  glycan array binding signal (z-score): 0.033
Gal3S(b1-3)GlcNAc
  glycan array binding signal (z-score): -0.275
[6]
  glycan array binding signal (z-score): -0.195
Gal3S(b1-4)Glc
  glycan array binding signal (z-score): -0.195
Gal3S(b1-4)Glc6S
  glycan array binding signal (z-score): 0.03
Gal3S(b1-4)GlcNAc
  glycan array binding signal (z-score): -0.208
Gal3S(b1-4)GlcNAc6S
  glycan array binding signal (z-score): -0.044
[7]
  glycan array binding signal (z-score): -0.048
Gal3S4S(b1-4)GlcNAc
  glycan array binding signal (z-score): -0.154
Gal3S6S(b1-4)GlcNAc
  glycan array binding signal (z-score): -0.057
Gal3S6S(b1-4)GlcNAc6S
  glycan array binding signal (z-score): -0.057
Gal4S(b1-4)GlcNAc
  glycan array binding signal (z-score): -0.085
Gal4S6S(b1-4)GlcNAc
  glycan array binding signal (z-score): -0.336
Gal6S(b1-4)Glc
  glycan array binding signal (z-score): 0.153
Gal6S(b1-4)Glc6S
  glycan array binding signal (z-score): 1.58
Gal6S(b1-4)GlcNAc
  glycan array binding signal (z-score): 1.22
Gal6S(b1-4)GlcNAc6S
  glycan array binding signal (z-score): -0.309
GalNAc(a1-3)Gal
  glycan array binding signal (z-score): -0.139
GalNAc(a1-3)GalNAc
  glycan array binding signal (z-score): -0.4
GalNAc(b1-3)Gal
  glycan array binding signal (z-score): -0.01
[8]
  glycan array binding signal (z-score): -0.227
[9]
  glycan array binding signal (z-score): -0.554
GalNAc(b1-3)GalNAc
  glycan array binding signal (z-score): -0.069
GalNAc(b1-4)GlcNAc
  glycan array binding signal (z-score): -0.215
[10]
  glycan array binding signal (z-score): 0.204
Glc(a1-4)Glc
  glycan array binding signal (z-score): 3.74
Glc(a1-6)Glc(a1-6)Glc
  glycan array binding signal (z-score): -0.428
Glc(b1-4)Glc
  glycan array binding signal (z-score): -0.378
Glc(b1-6)Glc
  glycan array binding signal (z-score): -0.404
GlcA(b1-3)Gal
  glycan array binding signal (z-score): -0.222
GlcA(b1-3)GlcNAc
  glycan array binding signal (z-score): -0.443
GlcA(b1-6)Gal
  glycan array binding signal (z-score): -0.165
[11]
  glycan array binding signal (z-score): -0.314
[12]
  glycan array binding signal (z-score): 1.13
[13]
  glycan array binding signal (z-score): 8
[14]
  glycan array binding signal (z-score): -0.169
[15]
  glycan array binding signal (z-score): -0.397
[16]
  glycan array binding signal (z-score): -0.46
[17]
  glycan array binding signal (z-score): -0.529
[18]
  glycan array binding signal (z-score): 0.255
